Earlier results on 1 compound are cited in publication PMC2580802 (Cell, 2008).

Each structure is given as a SMILES string.

The test system of the series is S. pneumoniae. The conditions noted are these: ref Irschik et al., 1985; M. Talaue, N. Connell, J.M. and R.H.E., unpublished; cited from earlier work.

For the compound `C/C=C/C/C=C(\C)C(O)CC/C(C)=C/C=C(\C)C(=O)c1c(O)cc([C@H](C)CC/C=C/NC(=O)OC)oc1=O` (stereo partly shown) [Cor, corallopyronin A], the MIC (as a rule, the smallest concentration in the dilution series that meets the test's criterion for growth inhibition) is at most 12.5 µg/mL.
